In US6841566B2, “Viral polymerase inhibitors” (Boehringer Ingelheim, Ltd., priority 2001, dated 2005):

molecular target: hepatitis C virus RNA dependant polymerase (NS5B) (Hepatitis C virus genotype 1b, UniProt P26663); assay: Inhibition of NS5B RNA dependent RNA polymerase activity (SPA, oligo-U/polyA)

Structure (SMILES)	IC50 [µM]
Cn1cccc1-c1nc2cc(C(=O)NC3(C(=O)Nc4ccc(/C=C/C(=O)O)cc4)CCCC3)ccc2n1C1CCCCC1 [compound 2048]	< 0.5
O=C(O)/C=C/c1ccc(NC(=O)C2(NC(=O)c3ccc4c(c3)nc(-c3ccco3)n4C3CCCCC3)CCCC2)cc1 [compound 2049]	< 0.5
O=C(O)/C=C/c1ccc(NC(=O)C2(NC(=O)c3ccc4c(c3)nc(-c3cccs3)n4C3CCCCC3)CCCC2)cc1 [compound 2050]	< 0.5
O=C(O)/C=C/c1ccc(NC(=O)C2(NC(=O)c3ccc4c(c3)nc(-c3cccc5c3OCO5)n4C3CCCCC3)CCCC2)cc1 [compound 2051]	0.5 to 5
O=C(O)/C=C/c1ccc(NC(=O)C2(NC(=O)c3ccc4c(c3)nc(-c3ccc(OCC(=O)NCCNC(=O)c5ccc(C(=O)c6ccccc6)cc5)cc3)n4C3CCCCC3)CCNCC2)cc1 [compound 2052]	5 to 25
O=C(O)/C=C/c1ccc(NC(=O)C2(NC(=O)c3ccc4c(c3)nc(-c3ccc(OCC(=O)NCCNC(=O)c5ccc(C(=O)c6ccccc6)cc5)cc3)n4C3CCCCC3)CCN(C(=O)CCCCC3SC[C@H]4NC(=O)N[C@@H]34)CC2)cc1 (stereo partly drawn) [compound 2053]	5 to 25
